The other results are listed elsewhere or left out. Most values come without repeats; read them as rough.
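Further: cells treated in 1,536-well plates, then fixed and DAPI-stained, with nuclei counted from automated high-throughput microscope images.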

The first test has as its system A2058. In words: cell count relative to DMSO control; melanoma cells; higher = more viable cells. Particulars: library dose: standard library concentration; 72 h.
Take `Cc1nc(Nc2ncc(C(=O)Nc3c(C)cccc3Cl)s2)cc(N2CCN(CCO)CC2)n1` [dasatanib] + Cc1cc([N+](=O)[O-])ccc1NS(=O)(=O)c1cc(Cl)ccc1Cl [FH535] (first compound 0.02 µM, partner dose 5 µM): the cell count turned out to be 70.6%.

Compound `C=CCn1c(=O)c2cnc(Nc3ccc(N4CCN(C)CC4)cc3)nc2n1-c1cccc(C(C)(C)O)n1` + COc1ccc(COc2ccc(Cc3cnc(N)nc3N)cc2OC)cc1 [GW2580] (first compound 0.1 µM, partner dose 5 µM) registered a cell count of 86.6%.

`NCC(=O)Nc1ccc(-n2nc(C(F)(F)F)cc2-c2ccc3c(ccc4ccccc43)c2)cc1` + CCN(CC)CCCCNc1ncc2cc(-c3cc(OC)cc(OC)c3)c(NC(=O)NC(C)(C)C)nc2n1 [PD173074] (first compound 5 µM, partner dose 0.5 µM) returned a cell count of 107%.

For the compound `C=CCn1c(=O)c2cnc(Nc3ccc(N4CCN(C)CC4)cc3)nc2n1-c1cccc(C(C)(C)O)n1` + CC(C)CCN1c2nc(Nc3cc(F)c(O)c(F)c3)ncc2N(C)C(=O)C1C [BID1870] (first compound 0.1 µM, partner dose 1 µM), the cell count is 89.9%. For the compound `CO[C@@H]1[C@H](N(C)C(=O)c2ccccc2)C[C@H]2O[C@]1(C)n1c3ccccc3c3c4c(c5c6ccccc6n2c5c31)C(=O)NC4` [Midostaurin] + O=C(O)C(=O)Nc1sc2c(c1C(=O)O)CCNC2 [TCS401] (first compound 0.4 µM, partner dose 8.33333 µM), the cell count is 80.6%. As for `CO[C@@H]1[C@H](N(C)C(=O)c2ccccc2)C[C@H]2O[C@]1(C)n1c3ccccc3c3c4c(c5c6ccccc6n2c5c31)C(=O)NC4` [Midostaurin] + COc1ccc2c(c1)CCC1C2CCC2(C)C(NCCCCCCN3C(=O)C=CC3=O)CCC12 [U73122] (first compound 0.4 µM, partner dose 2 µM), the cell count was found to be 38.6%. On the same count and under the same terms, the result for `NC(=O)Nc1cc(-c2cccc(F)c2)sc1C(=O)N[C@H]1CCCNC1` + COc1cc2ncnc(Nc3ccc(Oc4ccccc4)cc3)c2cc1OC [SrcI1] (first compound 0.1 µM, partner dose 10 µM) reads 81.3%.

For another test, the system named is A375. The test is described as above. The settings on record: library dose: standard library concentration; 72 h.
Compound `OCCn1cc(-c2cnc3nnn(Cc4ccc5ncccc5c4)c3n2)cn1` + CCc1ccc(CCOc2ccc(CC3SC(=O)NC3=O)cc2)nc1 [pioglitazone] (first compound 5 µM, partner dose 10 µM) returned a cell count of 94.5%. With `NCC(=O)Nc1ccc(-n2nc(C(F)(F)F)cc2-c2ccc3c(ccc4ccccc43)c2)cc1` + Cc1cc([N+](=O)[O-])ccc1NS(=O)(=O)c1cc(Cl)ccc1Cl [FH535] (first compound 5 µM, partner dose 5 µM), the cell count came to 50.6%. As to `Cc1nc(Nc2ncc(C(=O)Nc3c(C)cccc3Cl)s2)cc(N2CCN(CCO)CC2)n1` [dasatanib] + COc1cc(N2CCC(N3CCN(C)CC3)CC2)ccc1Nc1ncc(Cl)c(Nc2ccccc2S(=O)(=O)C(C)C)n1 [NVP-TAE684] (first compound 0.02 µM, partner dose 0.4 µM), the cell count came out at 62.8%.

On to `CO[C@@H]1[C@H](N(C)C(=O)c2ccccc2)C[C@H]2O[C@]1(C)n1c3ccccc3c3c4c(c5c6ccccc6n2c5c31)C(=O)NC4` [Midostaurin] + Oc1nc(-c2ccc(C(F)(F)F)cc2)nc2c1CSCC2 [XAV939] (first compound 0.4 µM, partner dose 10 µM), for which the cell count worked out at 72.5%.

`OCCn1cc(-c2cnc3nnn(Cc4ccc5ncccc5c4)c3n2)cn1` + N#Cc1c(O)c2c(-c3ccc(-c4ccccc4O)cc3)csc2[nH]c1=O [A769662] (first compound 5 µM, partner dose 10 µM) had a cell count of 117%. `C[C@]1(c2nc3c(C(N)=O)cccc3[nH]2)CCCN1` [Veliparib] + COC(=O)c1sccc1S(=O)(=O)Nc1ccc(Nc2ccccc2)cc1OC [GSK0660] (first compound 7 µM, partner dose 5 µM) yielded a cell count of 89.5%. On the same count and under the same terms, the result for `Cc1nc(Nc2ncc(C(=O)Nc3c(C)cccc3Cl)s2)cc(N2CCN(CCO)CC2)n1` [dasatanib] + COc1ccc(COc2ccc(Cc3cnc(N)nc3N)cc2OC)cc1 [GW2580] (first compound 0.02 µM, partner dose 5 µM) reads 56.1%; that for `CN(C)S(=O)(=O)c1ccc2c(c1)/C(=C/c1cc3c([nH]1)CCCC3)C(=O)N2` + COc1ccc2c(c1)CCC1C2CCC2(C)C(NCCCCCCN3C(=O)C=CC3=O)CCC12 [U73122] (first compound 2 µM, partner dose 2 µM), 101%. Consider `NCC(=O)Nc1ccc(-n2nc(C(F)(F)F)cc2-c2ccc3c(ccc4ccccc43)c2)cc1` + O=C1NC(=O)/C(=C/c2ccc(-c3ccc(F)cc3O)o2)S1 [AS252424] (first compound 5 µM, partner dose 5 µM), for which the cell count stood at 38.5%. Consider `CN(C)S(=O)(=O)c1ccc2c(c1)/C(=C/c1cc3c([nH]1)CCCC3)C(=O)N2` + Cn1cc(/C=C2\C(=O)Nc3cccnc32)c2ccccc21 [GW441756] (first compound 2 µM, partner dose 2 µM), for which the cell count was 146%.

The compound `C=CCn1c(=O)c2cnc(Nc3ccc(N4CCN(C)CC4)cc3)nc2n1-c1cccc(C(C)(C)O)n1` + O=C1NC(=O)/C(=C/c2ccc(-c3ccc(F)cc3O)o2)S1 [AS252424] (first compound 0.1 µM, partner dose 5 µM) gave a cell count of 78.2%. Still for that read-out and setting: as for `C=CCn1c(=O)c2cnc(Nc3ccc(N4CCN(C)CC4)cc3)nc2n1-c1cccc(C(C)(C)O)n1` + COc1ccc(-c2ccc3c(N4CCOCC4)nc(N4C[C@@H](C)O[C@@H](C)C4)nc3n2)cc1CO [KU0063794] (first compound 0.1 µM, partner dose 0.1 µM), the figure is 69.4%; as for `CO[C@@H]1[C@H](N(C)C(=O)c2ccccc2)C[C@H]2O[C@]1(C)n1c3ccccc3c3c4c(c5c6ccccc6n2c5c31)C(=O)NC4` [Midostaurin] + O=S(=O)(c1ccccc1)N(CC(F)(F)F)c1ccc(C(O)(C(F)(F)F)C(F)(F)F)cc1 [T0901317] (first compound 0.4 µM, partner dose 7 µM), 70.3%. On to `C[C@]1(c2nc3c(C(N)=O)cccc3[nH]2)CCCN1` [Veliparib] + Cc1cc([N+](=O)[O-])ccc1NS(=O)(=O)c1cc(Cl)ccc1Cl [FH535] (first compound 7 µM, partner dose 5 µM), for which the cell count was found to be 70.9%. For `Cc1nc(Nc2ncc(C(=O)Nc3c(C)cccc3Cl)s2)cc(N2CCN(CCO)CC2)n1` [dasatanib] + O=c1cc(-c2cccc3c2Sc2ccccc2S3)oc(N2CCOCC2)c1 [KU55933] (first compound 0.02 µM, partner dose 5 µM), the cell count came out at 64.4%. The same measure, in the same setting: the result for `Cc1nc(Nc2ncc(C(=O)Nc3c(C)cccc3Cl)s2)cc(N2CCN(CCO)CC2)n1` [dasatanib] + COc1ccc(-c2ccc3c(N4CCOCC4)nc(N4C[C@@H](C)O[C@@H](C)C4)nc3n2)cc1CO [KU0063794] (first compound 0.02 µM, partner dose 0.1 µM) reads 54.9%; that for `CN(C)S(=O)(=O)c1ccc2c(c1)/C(=C/c1cc3c([nH]1)CCCC3)C(=O)N2` + COC(=O)c1sccc1S(=O)(=O)Nc1ccc(Nc2ccccc2)cc1OC [GSK0660] (first compound 2 µM, partner dose 5 µM), 140%. The compound `CN(C)S(=O)(=O)c1ccc2c(c1)/C(=C/c1cc3c([nH]1)CCCC3)C(=O)N2` + COc1cc2ncnc(Nc3ccc(Oc4ccccc4)cc3)c2cc1OC [SrcI1] (first compound 2 µM, partner dose 10 µM) yielded a cell count of 116%. The compound `NCC(=O)Nc1ccc(-n2nc(C(F)(F)F)cc2-c2ccc3c(ccc4ccccc43)c2)cc1` + CC(C)CCN1c2nc(Nc3cc(F)c(O)c(F)c3)ncc2N(C)C(=O)C1C [BID1870] (first compound 5 µM, partner dose 1 µM) displayed a cell count of 63.5%. As for `NC(=O)Nc1cc(-c2cccc(F)c2)sc1C(=O)N[C@H]1CCCNC1` + O=C(Nc1ccccc1)c1cc([N+](=O)[O-])ccc1Cl [GW9662] (first compound 0.1 µM, partner dose 10 µM), the cell count came to 60.5%. `OCCn1cc(-c2cnc3nnn(Cc4ccc5ncccc5c4)c3n2)cn1` + Oc1nc(-c2ccc(C(F)(F)F)cc2)nc2c1CSCC2 [XAV939] (first compound 5 µM, partner dose 10 µM) came in with a cell count of 93.5%. In turn, `Cc1nc(Nc2ncc(C(=O)Nc3c(C)cccc3Cl)s2)cc(N2CCN(CCO)CC2)n1` [dasatanib] + O=C(O)C(=O)Nc1sc2c(c1C(=O)O)CCNC2 [TCS401] (first compound 0.02 µM, partner dose 8.33333 µM) yielded a cell count of 105%.

`C[C@]1(c2nc3c(C(N)=O)cccc3[nH]2)CCCN1` [Veliparib] + CC(C)CCN1c2nc(Nc3cc(F)c(O)c(F)c3)ncc2N(C)C(=O)C1C [BID1870] (first compound 7 µM, partner dose 1 µM) returned a cell count of 98.6%. `CO[C@@H]1[C@H](N(C)C(=O)c2ccccc2)C[C@H]2O[C@]1(C)n1c3ccccc3c3c4c(c5c6ccccc6n2c5c31)C(=O)NC4` [Midostaurin] + COc1ccc(COc2ccc(Cc3cnc(N)nc3N)cc2OC)cc1 [GW2580] (first compound 0.4 µM, partner dose 5 µM) showed a cell count of 64.4%. `NCC(=O)Nc1ccc(-n2nc(C(F)(F)F)cc2-c2ccc3c(ccc4ccccc43)c2)cc1` + COc1ccc2c(c1)CCC1C2CCC2(C)C(NCCCCCCN3C(=O)C=CC3=O)CCC12 [U73122] (first compound 5 µM, partner dose 2 µM) came in with a cell count of 31.6%.
